Experimental findings from paper PMC9911399, “Two distinct binding modes provide the RNA-binding protein RbFox with extraordinary sequence specificity” are described below.

Changes are numbered by the printed parent chain; changes in the protein carry UniProt numbers. The list shows a part of the results.

The labels stand for the following.
T1: RBFOX1 RRM RbFoxmut (Fox-RRM*) (Homo sapiens, UniProt Q9NWB1 109-208, R118D;E147R;N151S;E152T)
T1 sequence: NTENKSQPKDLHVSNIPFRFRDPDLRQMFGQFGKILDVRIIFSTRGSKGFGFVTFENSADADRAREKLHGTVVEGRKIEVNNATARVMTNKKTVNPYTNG

B1: AUUCGUC (DNA:RNA)
RNA: GGGAGACCGGAAUUCAGAUUGUCCAUUCGUCUUAAAUCCCGUCGUAGCCACCA
DNA 1: CAATCTGAATTCCGGTCTCCC
DNA 2: TGGTGGCTACGACGGGATT
B2: UAGACCA (DNA:RNA)
RNA: GGGAGACCGGAAUUCAGAUUGUCCUAGACCAUUAAAUCCCGUCGUAGCCACCA
DNA 1: CAATCTGAATTCCGGTCTCCC
DNA 2: TGGTGGCTACGACGGGATT
B3: UGUCCAA (DNA:RNA)
RNA: B2 RNA with A26G, G27U, A28C, C30A
DNA 1: CAATCTGAATTCCGGTCTCCC
DNA 2: TGGTGGCTACGACGGGATT
B4: AUGGCCC (DNA:RNA)
RNA: B1 RNA with U27G, C28G, G29C, U30C
DNA 1: CAATCTGAATTCCGGTCTCCC
DNA 2: TGGTGGCTACGACGGGATT
B5: AAGAGCU (DNA:RNA)
RNA: B2 RNA with U25A, C29G, A31U
DNA 1: CAATCTGAATTCCGGTCTCCC
DNA 2: TGGTGGCTACGACGGGATT
B6: AGCCGAG (DNA:RNA)
RNA: B1 RNA with U26G, U27C, U30A, C31G
DNA 1: CAATCTGAATTCCGGTCTCCC
DNA 2: TGGTGGCTACGACGGGATT
B7: UGAUUUC (DNA:RNA)
RNA: B1 RNA with A25U, U26G, U27A, C28U, G29U
DNA 1: CAATCTGAATTCCGGTCTCCC
DNA 2: TGGTGGCTACGACGGGATT
B8: GUUAACA (DNA:RNA)
RNA: B2 RNA with U25G, A26U, G27U, C29A
DNA 1: CAATCTGAATTCCGGTCTCCC
DNA 2: TGGTGGCTACGACGGGATT
B9: AUUUGUG (DNA:RNA)
RNA: B1 RNA with C28U, C31G
DNA 1: CAATCTGAATTCCGGTCTCCC
DNA 2: TGGTGGCTACGACGGGATT
B10: AAGCAGA (DNA:RNA)
RNA: B2 RNA with U25A, A28C, C29A, C30G
DNA 1: CAATCTGAATTCCGGTCTCCC
DNA 2: TGGTGGCTACGACGGGATT
B11: GAUAUGA (DNA:RNA)
RNA: B2 RNA with U25G, G27U, C29U, C30G
DNA 1: CAATCTGAATTCCGGTCTCCC
DNA 2: TGGTGGCTACGACGGGATT
B12: UAAAACC (DNA:RNA)
RNA: B2 RNA with G27A, C29A, A31C
DNA 1: CAATCTGAATTCCGGTCTCCC
DNA 2: TGGTGGCTACGACGGGATT
B13: UCGUACA (DNA:RNA)
RNA: B2 RNA with A26C, A28U, C29A
DNA 1: CAATCTGAATTCCGGTCTCCC
DNA 2: TGGTGGCTACGACGGGATT
B14: CAUGUUC (DNA:RNA)
RNA: B1 RNA with A25C, U26A, C28G, G29U
DNA 1: CAATCTGAATTCCGGTCTCCC
DNA 2: TGGTGGCTACGACGGGATT
B15: UGCCCCA (DNA:RNA)
RNA: B2 RNA with A26G, G27C, A28C
DNA 1: CAATCTGAATTCCGGTCTCCC
DNA 2: TGGTGGCTACGACGGGATT
B16: UAACUCG (DNA:RNA)
RNA: B2 RNA with G27A, A28C, C29U, A31G
DNA 1: CAATCTGAATTCCGGTCTCCC
DNA 2: TGGTGGCTACGACGGGATT
B17: CCUAGUC (DNA:RNA)
RNA: B1 RNA with A25C, U26C, C28A
DNA 1: CAATCTGAATTCCGGTCTCCC
DNA 2: TGGTGGCTACGACGGGATT
B18: CGUGAUA (DNA:RNA)
RNA: B1 RNA with A25C, U26G, C28G, G29A, C31A
DNA 1: CAATCTGAATTCCGGTCTCCC
DNA 2: TGGTGGCTACGACGGGATT
B19: UAUUAGU (DNA:RNA)
RNA: B2 RNA with G27U, A28U, C29A, C30G, A31U
DNA 1: CAATCTGAATTCCGGTCTCCC
DNA 2: TGGTGGCTACGACGGGATT
B20: GGACCUA (DNA:RNA)
RNA: B1 RNA with A25G, U26G, U27A, G29C, C31A
DNA 1: CAATCTGAATTCCGGTCTCCC
DNA 2: TGGTGGCTACGACGGGATT
B21: CGUCGCA (DNA:RNA)
RNA: B1 RNA with A25C, U26G, U30C, C31A
DNA 1: CAATCTGAATTCCGGTCTCCC
DNA 2: TGGTGGCTACGACGGGATT
B22: GAUCCGU (DNA:RNA)
RNA: B1 RNA with A25G, U26A, G29C, U30G, C31U
DNA 1: CAATCTGAATTCCGGTCTCCC
DNA 2: TGGTGGCTACGACGGGATT
B23: CCGAAAC (DNA:RNA)
RNA: B2 RNA with U25C, A26C, C29A, C30A, A31C
DNA 1: CAATCTGAATTCCGGTCTCCC
DNA 2: TGGTGGCTACGACGGGATT
B24: UGUUAUA (DNA:RNA)
RNA: B1 RNA with A25U, U26G, C28U, G29A, C31A
DNA 1: CAATCTGAATTCCGGTCTCCC
DNA 2: TGGTGGCTACGACGGGATT
B25: CUUGAAC (DNA:RNA)
RNA: B1 RNA with A25C, C28G, G29A, U30A
DNA 1: CAATCTGAATTCCGGTCTCCC
DNA 2: TGGTGGCTACGACGGGATT
B26: UAAGUGC (DNA:RNA)
RNA: B2 RNA with G27A, A28G, C29U, C30G, A31C
DNA 1: CAATCTGAATTCCGGTCTCCC
DNA 2: TGGTGGCTACGACGGGATT
B27: ACGCUAU (DNA:RNA)
RNA: B1 RNA with U26C, U27G, G29U, U30A, C31U
DNA 1: CAATCTGAATTCCGGTCTCCC
DNA 2: TGGTGGCTACGACGGGATT
B28: GGGGAUU (DNA:RNA)
RNA: B1 RNA with A25G, U26G, U27G, C28G, G29A, C31U
DNA 1: CAATCTGAATTCCGGTCTCCC
DNA 2: TGGTGGCTACGACGGGATT
B29: GCCGUUU (DNA:RNA)
RNA: B1 RNA with A25G, U26C, U27C, C28G, G29U, C31U
DNA 1: CAATCTGAATTCCGGTCTCCC
DNA 2: TGGTGGCTACGACGGGATT
B30: GGCGUGG (DNA:RNA)
RNA: GGGAGACCGGAAUUCAGAUUGUCCGGCGUGGUUAAAUCCCGUCGUAGCCACCA
DNA 1: CAATCTGAATTCCGGTCTCCC
DNA 2: TGGTGGCTACGACGGGATT
B31: AGCCUAA (DNA:RNA)
RNA: B30 RNA with G25A, G28C, G30A, G31A
DNA 1: CAATCTGAATTCCGGTCTCCC
DNA 2: TGGTGGCTACGACGGGATT

The target in this experiment is T1, RBFOX1 RRM RbFoxmut (Fox-RRM*). Description: EMSA; HiTS-Eq, 1 nM pool, 10 min; buffer printed only for the single-RNA assays: 10 mM Tris pH 7.5, 150 mM NaCl, 3.4 mM EDTA, 0.001% NP-40, 30 C. Conditions: tags: His6 N-terminal (pET28a); label: 5' 32P. Summed up:
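These values rest on relative association constants, computed from read-count changes of each RNA species versus the control reaction and normalised to the cognate motif. Reads came from free RNA recovered by 8% native PAGE after purified RbFox RRM (wild type or mutant) at increasing concentrations was equilibrated for 10 min in 50 µL with 1 nM of a 5′-radiolabelled pool with 7 randomized nucleotides and DNA-annealed flanks.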
For orientation: Mobility shift assays separate free from complexed probe on a gel.
Regarding B1, the binding signal is 0.157 KA relative to UGCAUGU.
Under B2 stands 0.0422 KA relative to UGCAUGU; under B3, 0.1 KA relative to UGCAUGU; under B4, 0.09 KA relative to UGCAUGU.
Take B5: the binding signal is 0.0786 KA relative to UGCAUGU.
Under B6 stands 0.0913 KA relative to UGCAUGU; under B7, 0.0674 KA relative to UGCAUGU.
In the case of B8, the binding signal was 0.104 KA relative to UGCAUGU.
B9: the binding signal is 0.17 KA relative to UGCAUGU.
The figure for B10 is 0.105 KA relative to UGCAUGU.
In the case of B11, the binding signal was 0.132 KA relative to UGCAUGU.
For B12, the binding signal is 0.053 KA relative to UGCAUGU.
As for B13, the binding signal was 0.0981 KA relative to UGCAUGU.
For B14, the binding signal was 0.119 KA relative to UGCAUGU.
Take B15: the binding signal is 0.0711 KA relative to UGCAUGU.
With B16, the binding signal is 0.0683 KA relative to UGCAUGU.
Turning to B17, the binding signal was 0.0963 KA relative to UGCAUGU.
As to B18, the binding signal is 0.193 KA relative to UGCAUGU.
In the case of B19, the binding signal was 0.112 KA relative to UGCAUGU.
The figure for B20 is 0.0777 KA relative to UGCAUGU.
Take B21: the binding signal was 0.146 KA relative to UGCAUGU.
The figure for B22 is 0.0824 KA relative to UGCAUGU.
Regarding B23, the binding signal is 0.0811 KA relative to UGCAUGU.
Consider B24, for which the binding signal is 0.136 KA relative to UGCAUGU.
B25: the binding signal is 0.0955 KA relative to UGCAUGU.
In the case of B26, the binding signal is 0.0696 KA relative to UGCAUGU.
Consider B27, for which the binding signal was 0.0894 KA relative to UGCAUGU.
Turning to B28, the binding signal is 0.0794 KA relative to UGCAUGU.
In the case of B29, the binding signal is 0.0818 KA relative to UGCAUGU.
As to B30, the binding signal was 0.122 KA relative to UGCAUGU.
Regarding B31, the binding signal was 0.0729 KA relative to UGCAUGU.
